{"source": "the supplement of paper PMC8728848", "binders": {"B1": {"name": "PX9937J-pdi-523-26-523 (Parabacteroides distasonis) (protein)", "chain": "EPVSSISDANYWKSPDLFKAFNIGLHGLLRSQSSYNIFVLGEPRSDIYGDQPFGGEATQGVERFSYNTINAEFTGISNFANFYTTLNQINLMIRRTNETDLLGEAEKNYYLGQAYGLRAYIYFHLLRSWGDVIITTEPTLGSELDISHLDKAASPASEVMDLIKKDIDASEKAFGGDYSYKQGKCYWSKPATLMLKGEVYLWSGRQMGGGTGDYTVAKTALQDLQQNGNLKLQEKFTDVFSFNNKENSEMIFALHSGKEDDFMMWRDYNWRNNMVPQREYMAGYCDETGTPFLEIPGYNLQGLMRYQVKKDHYLKSFREGDTRLKGTLKAVYKKHEDGTLEYIAPIQYKFQGTTLEGSNERSWYDDYPIYRYADALLLLAEAKALLGEDPSTEINAVRERAYGSEYFNAHKNEVAYPNDKGSFYNDNPFEAGDENVMEAILKERLREFFFEGKRWYDLRRFGKDYVLKYTTAQESRLLWPINEGALTNNPALKQTPGY"}}, "experiment_in_all_cases": "glycan array binding signal (z-score within array); higher = stronger binding", "settings_in_all_cases": "glycan notation: IUPAC condensed, linker removed", "key": {"[1]": {"biological_target": "Neu5Ac(a2-6)Gal(b1-3)GlcNAc(b1-3)[Gal(b1-4)GlcNAc(b1-6)]Gal(b1-4)Glc", "summary_of_the_method": "(§1)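 The binding signal is a Z-score computed within each array and averaged over linkers. Arrays of the same protein sequence at different concentrations or buffers were also averaged together. Data originate from 3228 arrays in the Consortium for Functional Glycomics database, kept only where the protein sequence was available.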"}, "[2]": {"biological_target": "Neu5Ac(a2-6)Gal(b1-4)Glc", "summary_of_the_method": "as §1"}, "[3]": {"biological_target": "Neu5Ac(a2-6)Gal(b1-4)GlcNAc", "summary_of_the_method": "as §1"}, "[4]": {"biological_target": "Neu5Ac(a2-6)Gal(b1-4)GlcNAc(b1-2)Man", "summary_of_the_method": "as §1"}, "[5]": {"biological_target": "Neu5Ac(a2-6)Gal(b1-4)GlcNAc(b1-2)Man(a1-3)Man(b1-4)GlcNAc(b1-4)GlcNAc", "summary_of_the_method": "as §1"}, "[6]": {"biological_target": "Neu5Ac(a2-6)Gal(b1-4)GlcNAc(b1-2)Man(a1-3)[Gal(b1-4)GlcNAc(b1-2)Man(a1-6)]Man(b1-4)GlcNAc(b1-4)GlcNAc", "summary_of_the_method": "as §1"}, "[7]": {"biological_target": "Neu5Ac(a2-6)Gal(b1-4)GlcNAc(b1-2)Man(a1-3)[GlcNAc(b1-2)Man(a1-6)]Man(b1-4)GlcNAc(b1-4)GlcNAc", "summary_of_the_method": "as §1"}, "[8]": {"biological_target": "Neu5Ac(a2-6)Gal(b1-4)GlcNAc(b1-2)Man(a1-3)[GlcNAc(b1-4)][Neu5Ac(a2-6)Gal(b1-4)GlcNAc(b1-2)Man(a1-6)]Man(b1-4)GlcNAc(b1-4)GlcNAc", "summary_of_the_method": "as §1"}, "[9]": {"biological_target": "Neu5Ac(a2-6)Gal(b1-4)GlcNAc(b1-2)Man(a1-3)[Man(a1-6)]Man(b1-4)GlcNAc(b1-4)GlcNAc", "summary_of_the_method": "as §1"}, "[10]": {"biological_target": "Neu5Ac(a2-6)Gal(b1-4)GlcNAc(b1-2)Man(a1-3)[Neu5Ac(a2-3)Gal(b1-4)GlcNAc(b1-2)Man(a1-6)]Man(b1-4)GlcNAc(b1-4)GlcNAc", "summary_of_the_method": "as §1"}, "[11]": {"biological_target": "Neu5Ac(a2-6)Gal(b1-4)GlcNAc(b1-2)Man(a1-3)[Neu5Ac(a2-6)Gal(b1-4)GlcNAc(b1-2)Man(a1-6)]Man(b1-4)GlcNAc(b1-4)GlcNAc", "summary_of_the_method": "as §1"}, "[12]": {"biological_target": "Neu5Ac(a2-6)Gal(b1-4)GlcNAc(b1-2)Man(a1-3)[Neu5Ac(a2-6)Gal(b1-4)GlcNAc(b1-2)Man(a1-6)]Man(b1-4)GlcNAc(b1-4)[Fuc(a1-6)]GlcNAc", "summary_of_the_method": "as §1"}, "[13]": {"biological_target": "Neu5Ac(a2-6)Gal(b1-4)GlcNAc(b1-2)Man(a1-6)Man(b1-4)GlcNAc(b1-4)GlcNAc", "summary_of_the_method": "as §1"}, "[14]": {"biological_target": "Neu5Ac(a2-6)Gal(b1-4)GlcNAc(b1-2)Man(a1-6)[Gal(b1-4)GlcNAc(b1-2)Man(a1-3)]Man(b1-4)GlcNAc(b1-4)GlcNAc", "summary_of_the_method": "as §1"}, "[15]": {"biological_target": "Neu5Ac(a2-6)Gal(b1-4)GlcNAc(b1-2)Man(a1-6)[GlcNAc(b1-2)Man(a1-3)]Man(b1-4)GlcNAc(b1-4)GlcNAc", "summary_of_the_method": "as §1"}, "[16]": {"biological_target": "Neu5Ac(a2-6)Gal(b1-4)GlcNAc(b1-2)Man(a1-6)[Man(a1-3)]Man(b1-4)GlcNAc(b1-4)GlcNAc", "summary_of_the_method": "as §1"}, "[17]": {"biological_target": "Neu5Ac(a2-6)Gal(b1-4)GlcNAc(b1-2)[Neu5Ac(a2-6)Gal(b1-4)GlcNAc(b1-4)]Man(a1-3)[GlcNAc(b1-4)][Neu5Ac(a2-6)Gal(b1-4)GlcNAc(b1-2)[Neu5Ac(a2-6)Gal(b1-4)GlcNAc(b1-6)]Man(a1-6)]Man(b1-4)GlcNAc(b1-4)GlcNAc", "summary_of_the_method": "as §1"}, "[18]": {"biological_target": "Neu5Ac(a2-6)Gal(b1-4)GlcNAc(b1-2)[Neu5Ac(a2-6)Gal(b1-4)GlcNAc(b1-4)]Man(a1-3)[GlcNAc(b1-4)][Neu5Ac(a2-6)Gal(b1-4)GlcNAc(b1-4)Man(a1-6)]Man(b1-4)GlcNAc(b1-4)GlcNAc", "summary_of_the_method": "as §1"}, "[19]": {"biological_target": "Neu5Ac(a2-6)Gal(b1-4)GlcNAc(b1-2)[Neu5Ac(a2-6)Gal(b1-4)GlcNAc(b1-6)]Man(a1-6)[Neu5Ac(a2-6)Gal(b1-4)GlcNAc(b1-2)Man(a1-3)][GlcNAc(b1-4)]Man(b1-4)GlcNAc(b1-4)GlcNAc", "summary_of_the_method": "as §1"}, "[20]": {"biological_target": "Neu5Ac(a2-6)Gal(b1-4)GlcNAc(b1-3)Gal(b1-3)GlcNAc", "summary_of_the_method": "as §1"}, "[21]": {"biological_target": "Neu5Ac(a2-6)Gal(b1-4)GlcNAc(b1-3)Gal(b1-4)GlcNAc", "summary_of_the_method": "as §1"}, "[22]": {"biological_target": "Neu5Ac(a2-6)Gal(b1-4)GlcNAc(b1-3)Gal(b1-4)GlcNAc(b1-2)Man(a1-3)[Neu5Ac(a2-6)Gal(b1-4)GlcNAc(b1-3)Gal(b1-4)GlcNAc(b1-2)Man(a1-6)]GalNAc", "summary_of_the_method": "as §1"}, "[23]": {"biological_target": "Neu5Ac(a2-6)Gal(b1-4)GlcNAc(b1-3)Gal(b1-4)GlcNAc(b1-3)Gal(b1-4)GlcNAc", "summary_of_the_method": "as §1"}, "[24]": {"biological_target": "Neu5Ac(a2-6)Gal(b1-4)GlcNAc(b1-3)Gal(b1-4)GlcNAc(b1-3)Gal(b1-4)GlcNAc(b1-2)Man(a1-3)[Neu5Ac(a2-6)Gal(b1-4)GlcNAc(b1-3)Gal(b1-4)GlcNAc(b1-3)Gal(b1-4)GlcNAc(b1-2)Man(a1-6)]GalNAc", "summary_of_the_method": "as §1"}, "[25]": {"biological_target": "Neu5Ac(a2-6)Gal(b1-4)GlcNAc(b1-3)Gal(b1-4)GlcNAc(b1-3)GalNAc", "summary_of_the_method": "as §1"}, "[26]": {"biological_target": "Neu5Ac(a2-6)Gal(b1-4)GlcNAc(b1-3)Gal(b1-4)GlcNAc(b1-3)[Neu5Ac(a2-6)Gal(b1-4)GlcNAc(b1-3)Gal(b1-4)GlcNAc(b1-6)]GalNAc", "summary_of_the_method": "as §1"}, "[27]": {"biological_target": "Neu5Ac(a2-6)Gal(b1-4)GlcNAc(b1-3)Gal(b1-4)GlcNAc(b1-6)[Gal(b1-3)]GalNAc", "summary_of_the_method": "as §1"}, "[28]": {"biological_target": "Neu5Ac(a2-6)Gal(b1-4)GlcNAc(b1-3)Gal(b1-4)[Fuc(a1-3)]GlcNAc(b1-3)Gal(b1-4)[Fuc(a1-3)]GlcNAc", "summary_of_the_method": "as §1"}, "[29]": {"biological_target": "Neu5Ac(a2-6)Gal(b1-4)GlcNAc(b1-3)GalNAc", "summary_of_the_method": "as §1"}, "[30]": {"biological_target": "Neu5Ac(a2-6)Gal(b1-4)GlcNAc(b1-3)[Neu5Ac(a2-6)Gal(b1-4)GlcNAc(b1-6)]GalNAc", "summary_of_the_method": "as §1"}, "[31]": {"biological_target": "Neu5Ac(a2-6)Gal(b1-4)GlcNAc(b1-6)GalNAc", "summary_of_the_method": "as §1"}, "[32]": {"biological_target": "Neu5Ac(a2-6)Gal(b1-4)GlcNAc(b1-6)[Gal(b1-3)GlcNAc(b1-3)]Gal(b1-4)Glc", "summary_of_the_method": "as §1"}, "[33]": {"biological_target": "Neu5Ac(a2-6)Gal(b1-4)GlcNAc(b1-6)[Gal(b1-3)]GalNAc", "summary_of_the_method": "as §1"}, "[34]": {"biological_target": "Neu5Ac(a2-6)Gal(b1-4)GlcNAc6S", "summary_of_the_method": "as §1"}, "[35]": {"biological_target": "Neu5Ac(a2-6)GalNAc", "summary_of_the_method": "as §1"}, "[36]": {"biological_target": "Neu5Ac(a2-6)GalNAc(b1-4)GlcNAc", "summary_of_the_method": "as §1"}, "[37]": {"biological_target": "Neu5Ac(a2-6)GalNAc(b1-4)GlcNAc6S", "summary_of_the_method": "as §1"}, "[38]": {"biological_target": "Neu5Ac(a2-6)GlcNAc(b1-4)GlcNAc", "summary_of_the_method": "as §1"}}, "note": "This is one part of the list.", "data": [{"binder": "B1", "values": [{"measurement": "glycan array binding signal (z-score)", "setting": "[1]", "result": -0.581}, {"measurement": "glycan array binding signal (z-score)", "setting": "[2]", "result": -0.235}, {"measurement": "glycan array binding signal (z-score)", "setting": "[3]", "result": -0.794}, {"measurement": "glycan array binding signal (z-score)", "setting": "[4]", "result": -0.089}, {"measurement": "glycan array binding signal (z-score)", "setting": "[5]", "result": -0.373}, {"measurement": "glycan array binding signal (z-score)", "setting": "[6]", "result": 4.14}, {"measurement": "glycan array binding signal (z-score)", "setting": "[7]", "result": 0.183}, {"measurement": "glycan array binding signal (z-score)", "setting": "[8]", "result": -0.344}, {"measurement": "glycan array binding signal (z-score)", "setting": "[9]", "result": 0.135}, {"measurement": "glycan array binding signal (z-score)", "setting": "[10]", "result": -0.327}, {"measurement": "glycan array binding signal (z-score)", "setting": "[11]", "result": 0.008}, {"measurement": "glycan array binding signal (z-score)", "setting": "[12]", "result": -0.395}, {"measurement": "glycan array binding signal (z-score)", "setting": "[13]", "result": -0.455}, {"measurement": "glycan array binding signal (z-score)", "setting": "[14]", "result": -0.668}, {"measurement": "glycan array binding signal (z-score)", "setting": "[15]", "result": -0.558}, {"measurement": "glycan array binding signal (z-score)", "setting": "[16]", "result": -0.363}, {"measurement": "glycan array binding signal (z-score)", "setting": "[17]", "result": -0.429}, {"measurement": "glycan array binding signal (z-score)", "setting": "[18]", "result": -0.426}, {"measurement": "glycan array binding signal (z-score)", "setting": "[19]", "result": 0.316}, {"measurement": "glycan array binding signal (z-score)", "setting": "[20]", "result": -0.303}, {"measurement": "glycan array binding signal (z-score)", "setting": "[21]", "result": 0.004}, {"measurement": "glycan array binding signal (z-score)", "setting": "[22]", "result": 0.114}, {"measurement": "glycan array binding signal (z-score)", "setting": "[23]", "result": -0.361}, {"measurement": "glycan array binding signal (z-score)", "setting": "[24]", "result": 1.07}, {"measurement": "glycan array binding signal (z-score)", "setting": "[25]", "result": -0.443}, {"measurement": "glycan array binding signal (z-score)", "setting": "[26]", "result": -0.472}, {"measurement": "glycan array binding signal (z-score)", "setting": "[27]", "result": -0.753}, {"measurement": "glycan array binding signal (z-score)", "setting": "[28]", "result": 0.331}, {"measurement": "glycan array binding signal (z-score)", "setting": "[29]", "result": -0.339}, {"measurement": "glycan array binding signal (z-score)", "setting": "[30]", "result": -0.711}, {"measurement": "glycan array binding signal (z-score)", "setting": "[31]", "result": -0.246}, {"measurement": "glycan array binding signal (z-score)", "setting": "[32]", "result": 0.146}, {"measurement": "glycan array binding signal (z-score)", "setting": "[33]", "result": 0.505}, {"measurement": "glycan array binding signal (z-score)", "setting": "[34]", "result": -0.33}, {"measurement": "glycan array binding signal (z-score)", "setting": "[35]", "result": -0.189}, {"measurement": "glycan array binding signal (z-score)", "setting": "[36]", "result": -0.419}, {"measurement": "glycan array binding signal (z-score)", "setting": "[37]", "result": -0.03}, {"measurement": "glycan array binding signal (z-score)", "setting": "[38]", "result": -0.58}]}]}
